From PubChem BioAssay AID624296 (National Center for Advancing Translational Sciences (NCATS), 2012)
Out of some 350,000 compounds screened, about 9,900 (2.8%) were called active. The inconclusive results got no clear call from the source; some entries with a clear call stand among them for comparison. Calls follow the shape of the dose curve; as a rule, active = well fitted activation curve with a large enough effect; inconclusive = small, poorly fitted or top-dose-only effect; inactive = no such curve, though single readings can be large or run the other way. Potencies of inconclusive entries are left out as doubtful fits.

Assay: A quantitative high throughput screen for small molecules that induce DNA re-replication in MCF 10a normal breast cells. Also: nearly all actives have a fitted effect of over 50% in size. As to activity, positive = re-replication: % of control where 0% means no effect.
Conditions: MCF 10A DNA re-replication, Hoechst nuclear intensity, 48 h; activity, positive = re-replication: at 46.1 µM (top of the series)
Potency is read from the fitted curve at half-maximal effect; tags tell the direction and shape of the fitted curve.

| Structure (SMILES) | activity, positive = re-replication | Potency |
| --- | --- | --- |
| CCOc1cccc(C2C(C(=O)c3ccc(C)o3)=C(O)C(=O)N2Cc2ccncc2)c1 (stereo not drawn) | inactive: 7.8% |  |
| CCC(C)(C)c1ccc(Oc2ccc(NC(=O)COC(=O)C3=COCCO3)cc2)cc1 |  | inconclusive [activator, single point] |
| CCCOC(=O)CN1C(=O)c2ccccc2C1=O | inactive: 4.4% |  |
| C[C@@H]1CN([C@H](C)CO)C(=O)Cc2cc(NC(=O)Nc3ccccc3)ccc2O[C@@H]1CN(C)Cc1ccc2c(c1)OCO2 | inactive: 20.4% |  |
| C[C@H](CO)N1C[C@H](C)[C@@H](CN(C)Cc2ccc(-c3ccccc3)cc2)Oc2c(NS(=O)(=O)c3cccs3)cccc2C1=O |  | inconclusive [activator, partial curve, poor fit] |
| Cc1c(C(=O)Nc2ccc3nc(N4CCOCC4)sc3c2)oc2ccccc12 |  | inconclusive [activator, single point] |
| c1ccc(Sc2ccccn2)cc1 |  | inconclusive [activator, partial curve, poor fit] |
| CN(C)S(=O)(=O)c1ccc(Cl)c(NC(=O)CSc2nc3ccccc3c(=O)n2CCCN2CCOCC2)c1 |  | inconclusive [activator, partial curve] |
| Cc1ccc(N=C2NC(=O)/C(=C/c3cccn3C)S2)cc1 |  | inconclusive [activator, single point] |
| O=C(/C=C/c1ccc(S(=O)(=O)NCc2ccco2)cc1)NCc1ccccc1Cl |  | inconclusive [activator, single point] |
| COC(=O)c1ccc(C2c3c(oc4ccccc4c3=O)C(=O)N2CCCN2CCOCC2)cc1 (stereo not drawn) |  | inconclusive [activator, single point] |
| O=C(OCC(=O)N1CCN(C(=O)c2ccco2)CC1)c1cc(-c2ccc(Cl)c(Cl)c2Cl)nc2ccccc12 |  | inconclusive [activator, partial curve, poor fit] |
| CC(C)(C)c1ccc(S(=O)(=O)NNC(=O)c2cc3ccccc3[nH]2)cc1 | inactive: 6.07% |  |
| Cn1c(CC2Sc3ccccc3NC2=O)nnc1SCC(=O)c1ccc(Cl)cc1 (stereo not drawn) |  | inconclusive [activator, single point] |
| CCOC(=O)c1ccc(C(=O)NNC(=O)C2CC=CCC2)cc1 (stereo not drawn) |  | inconclusive [activator, single point] |
| CCCCOC(=O)CSC1=C(C#N)C(c2ccccc2OC)C(C#N)C(=O)N1 (stereo not drawn) |  | inconclusive [activator, partial curve, poor fit] |
| O=C(NCc1nc(-c2ccc(C(F)(F)F)cc2)no1)Nc1ccc(OC(F)(F)F)cc1 |  | inconclusive [activator, full curve] |
| COCCN1CCN(Cc2nc(Cc3ccc(OC)c(OC)c3)no2)CC1 | inactive: -3.35% |  |
| COC(=O)c1cc(=O)n(CCc2ccc(OC)cc2)c(=Nc2ccc(F)c(Cl)c2)s1 |  | inconclusive [activator, full curve, poor fit] |
| Cc1cnc(C(=O)NC(Cc2ccccc2)c2ccccc2)cn1 (stereo not drawn) | inactive: 0.996% |  |
| CCSc1ccccc1C(=O)Nc1ccc(S(=O)(=O)NC(C)=O)cc1 | inactive: 7.57% |  |
| CC(C)CCNc1ncnc2c1cnn2Cc1ccccc1Cl |  | inconclusive [activator, single point] |
| COc1ccc2c(c1)C(=O)N1[C@H]3c4cc(Br)ccc4OC[C@@H]3[C@H](c3ccccc3)[C@]1(C)C(=O)N2 |  | active: 4.11 µM |

| Structure (SMILES) | activity, positive = re-replication | Potency |
| --- | --- | --- |
| COc1cc2cc(C(=O)Nc3ccccc3)c(N)nc2cc1OC |  | inconclusive [activator, single point] |
| CCN1CCN(CCCNC(=O)c2cc3sccc3n2CC)CC1 | inactive: 4.77% |  |
| O=C(C1CC1)N1CCc2cc(S(=O)(=O)NCCCN3CCCCC3)ccc21 |  | inconclusive [activator, partial curve, poor fit] |
| FC(F)Oc1ccc(/C=N/NC(=S)Nc2cc(C(F)(F)F)ccc2Cl)cc1 |  | inconclusive [activator, full curve, poor fit] |
| COc1cc(OC)cc(-c2c(C#Cc3ccsc3)c3cc(-c4ccc(OC)c(OC)c4)ccc3n2C)c1 |  | inconclusive [activator, single point] |
| CC(C)C(=O)Nc1cccc(COc2ccc(CN(CCc3ccccc3)C(=O)OC(C)(C)C)cc2)c1 |  | inconclusive [activator, single point] |
| CCOc1cc(N2CCOCC2)c(OCC)cc1NC(=O)COC(=O)CCOc1ccc(C(C)(C)C)cc1 |  | inconclusive [activator, partial curve, poor fit] |
| CCCCn1nnnc1SCC(=O)NC1CCCCC1 | inactive: -4.98% |  |
| Cc1nnc(N=c2ssnc2Cl)o1 |  | inconclusive [activator, partial curve, poor fit] |
| COC(=O)C1=NN(C(=O)c2cccc(Cl)c2)C(O)(C(C)(C)C)C1 (stereo not drawn) |  | inconclusive [activator, single point] |
| COc1cccc(-c2csc(N3CCN(C(=S)Nc4ccccc4OC)CC3)n2)c1 |  | active: 8.2 µM |
| O=C(CN1CCC(Cc2ccccc2)CC1)NCCc1ccc(F)cc1 |  | inconclusive [activator, partial curve, poor fit] |
| Cc1cc(NC(=O)c2noc3c2CCCC3)nn1Cc1ccc(Cl)cc1 | inactive: -6.24% |  |
| Nc1ccc(C(=O)N/N=C\c2ccc(OC(=O)c3ccccc3Cl)cc2)cc1 | inactive: 16% |  |
| COc1ccc(C(C)=O)cc1CSc1nnc(-c2ccc(Cl)cc2)n1-c1ccccc1 |  | inconclusive [activator, partial curve, poor fit] |
| CN(C)c1ncc(S(=O)(=O)c2ccccc2)c(-c2ccc(Cl)cc2Cl)n1 |  | inconclusive [activator, single point] |
| COc1ccc(-c2nc(N3CCOCC3)nc3n[nH]c(N)c23)cc1 | inactive: 0.943% |  |
| COc1ccc2c(c1)CC[C@@H]1[C@@H]2CC[C@]2(C)C(=O)CC[C@@H]12 |  | inconclusive [activator, partial curve, poor fit] |
| COc1ccccc1/C=C/C(=O)Nc1cccnc1Cl | inactive: 7.47% |  |
| Cc1ccccc1CN1CCC(CNC(=O)C2CCCN(c3ncnc4c3nc3n4CCCCC3)C2)CC1 (stereo not drawn) | inactive: 1.95% |  |
| Nc1ncnc(N)c1N=Nc1ccccc1 | inactive: -2.31% |  |
| CCOc1ccc(CN2CCN(Cc3cc4ccccc4o3)CC2CCO)cc1 (stereo not drawn) |  | inconclusive [activator, single point] |
| C[C@@H]1CN(C(=O)c2nc3ccc(Cl)cn3c2CN[C@H]2CCCCNC2=O)C[C@H](C)O1 |  | inconclusive [activator, full curve, poor fit] |

| Structure (SMILES) | activity, positive = re-replication | Potency |
| --- | --- | --- |
| O=C(/C=C/c1ccc([N+](=O)[O-])cc1)OCC(=O)c1ccc[nH]1 | inactive: 16.9% |  |
| Cc1nc(C(=O)Nc2cc(F)cc(Cl)c2)sc1C1(C)CC(c2ccccc2)=NO1 (stereo not drawn) |  | inconclusive [activator, partial curve] |
| Cc1ccc(OCc2cc(C(=O)NCC(C)(C)N3CCOCC3)no2)cc1C |  | inconclusive [activator, partial curve, poor fit] |
| Cc1ccccc1N=C1C(=O)Nc2ccccc21 | inactive: -1.6% |  |
| CCn1c(=O)cc(SCC(=O)N2CCN(C)CC2)c2ccccc21 |  | inconclusive [activator, partial curve, poor fit] |
| COC(=O)c1c(C(=O)c2ccc(Br)cc2)n(C)c2ccccc12 | inactive: 11.8% |  |
| COc1ccccc1OCC(=O)NCCSCc1ccccc1Cl | inactive: 9.96% |  |
| CCOC(=O)c1sc(=S)n(-c2ccccc2)c1SC | inactive: 1.47% |  |
| CCC(=O)N(C)/C=C1\Sc2ccccc2C1=O | inactive: -10.7% |  |
| COc1cc(OC)c(C#N)c(S(=O)(=O)Cc2ccccc2)c1 | inactive: 2.29% |  |
| O=C(c1ccc(-c2ccccc2)cc1)C1CCCN(C(=O)c2ccncc2)C1 (stereo not drawn) | inactive: -15% |  |
| O=C(c1cccc(Cl)c1)N1CCC2(CC1)NCCc1[nH]cnc12 |  | inconclusive [activator, single point] |
| CC1CC(C)CN(CCOc2ccccc2-c2ccccc2)C1 (stereo not drawn) |  | inconclusive [activator, single point] |
| COC(=O)c1ccc(COc2ccc(C3C4=C(CCCC4=O)Nc4onc(C)c43)cc2)cc1 (stereo not drawn) |  | inconclusive [activator, single point] |
| COC(=O)c1cccc(NC(=O)c2cccc([N+](=O)[O-])c2)c1 |  | inconclusive [activator, single point] |
| Cc1ccccc1Cn1cc(NC(=O)c2noc3c2CC(C(C)(C)C)CC3)cn1 (stereo not drawn) |  | inconclusive [activator, partial curve, poor fit] |
| O=C(O)CSc1nc2ccccc2o1 | inactive: 9.79% |  |
| Cc1ccc(C)c(NC(=S)N2CCN(c3cccc(C(F)(F)F)c3)CC2)c1 | inactive: 256% [at 0.0737 µM] |  |
| COc1ccccc1NC(=O)Nc1ccc(Cc2ccncc2)cc1 |  | inconclusive [activator, partial curve, poor fit] |
| CCCn1c(=O)c(C(=O)Nc2ncccc2C)c(O)c2ccccc21 |  | inconclusive [activator, single point] |
| OC(CNCCc1ccc(Cl)cc1)COc1ccc2ccccc2c1 (stereo not drawn) |  | inconclusive [activator, single point] |
| CCO[C@H]1OC(C(=O)N2CCCCCCC2)=C[C@@H](c2ccccc2)[C@@H]1CCCO |  | inconclusive [activator, partial curve, poor fit] |
